Experimental data: paper PMC6796939
No constants are given. Whether binding was seen depends on the method and setting. In cells and extracts the contact can be indirect. Some binding calls cover weakened binding; strength is not graded here. For some assays here: Sequences can lack the tags named with a protein.

Experiments:
PtcWTΔC4-V5 (Drosophila) = biological target: T1, PtcWTΔC4-V5 (Drosophila) (UniProt P18502); test: co-IP; S2 cells co-transfected with tagged constructs; lysed in NP-40 buffer (50 mM Tris-Cl pH 8.0, 0.1 M NaCl, 1% NP-40, 10% glycerol, 1.5 mM EDTA) at 4 °C; primary antibody (anti-V5, anti-HA, anti-Flag) 2 h, protein A/G 1 h; western blot; some panels with or without Hh (Hh plasmid and Hh conditioned medium), some with dsRNA against ptc 5'UTR to knock down endogenous Ptc
T1 sequence: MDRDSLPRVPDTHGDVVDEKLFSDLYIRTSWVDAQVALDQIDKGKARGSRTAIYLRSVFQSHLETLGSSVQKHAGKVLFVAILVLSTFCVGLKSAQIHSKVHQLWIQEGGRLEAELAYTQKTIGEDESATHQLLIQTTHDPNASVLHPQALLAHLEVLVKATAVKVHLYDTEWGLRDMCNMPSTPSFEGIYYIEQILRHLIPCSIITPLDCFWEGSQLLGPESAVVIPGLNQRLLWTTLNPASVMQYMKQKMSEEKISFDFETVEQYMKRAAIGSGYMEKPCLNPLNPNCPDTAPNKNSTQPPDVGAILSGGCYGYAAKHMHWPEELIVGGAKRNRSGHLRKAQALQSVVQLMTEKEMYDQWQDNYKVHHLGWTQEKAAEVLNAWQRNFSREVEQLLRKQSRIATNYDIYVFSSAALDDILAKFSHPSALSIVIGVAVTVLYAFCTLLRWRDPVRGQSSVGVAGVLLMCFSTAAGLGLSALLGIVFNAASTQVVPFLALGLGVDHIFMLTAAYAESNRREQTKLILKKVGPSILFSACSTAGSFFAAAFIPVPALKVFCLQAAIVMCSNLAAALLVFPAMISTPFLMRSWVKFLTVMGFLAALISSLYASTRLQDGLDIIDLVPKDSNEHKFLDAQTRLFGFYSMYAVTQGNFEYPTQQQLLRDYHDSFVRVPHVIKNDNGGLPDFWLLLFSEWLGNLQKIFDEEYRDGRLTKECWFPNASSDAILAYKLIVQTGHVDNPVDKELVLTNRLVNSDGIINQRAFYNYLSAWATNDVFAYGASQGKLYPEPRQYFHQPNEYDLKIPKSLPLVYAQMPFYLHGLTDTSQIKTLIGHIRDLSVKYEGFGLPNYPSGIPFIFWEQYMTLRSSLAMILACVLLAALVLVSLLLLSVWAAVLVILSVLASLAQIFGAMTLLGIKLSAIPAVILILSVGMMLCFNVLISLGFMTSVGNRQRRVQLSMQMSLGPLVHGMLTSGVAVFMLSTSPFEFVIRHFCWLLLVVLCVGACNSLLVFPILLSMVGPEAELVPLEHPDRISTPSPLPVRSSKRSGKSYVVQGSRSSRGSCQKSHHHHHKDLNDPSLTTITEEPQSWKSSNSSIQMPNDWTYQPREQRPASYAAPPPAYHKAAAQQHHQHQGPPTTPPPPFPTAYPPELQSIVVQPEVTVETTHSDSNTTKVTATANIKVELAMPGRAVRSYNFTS

SmoWT (Drosophila) = biological target: T2, SmoWT (Drosophila) (UniProt P91682); test: as above
T2 sequence: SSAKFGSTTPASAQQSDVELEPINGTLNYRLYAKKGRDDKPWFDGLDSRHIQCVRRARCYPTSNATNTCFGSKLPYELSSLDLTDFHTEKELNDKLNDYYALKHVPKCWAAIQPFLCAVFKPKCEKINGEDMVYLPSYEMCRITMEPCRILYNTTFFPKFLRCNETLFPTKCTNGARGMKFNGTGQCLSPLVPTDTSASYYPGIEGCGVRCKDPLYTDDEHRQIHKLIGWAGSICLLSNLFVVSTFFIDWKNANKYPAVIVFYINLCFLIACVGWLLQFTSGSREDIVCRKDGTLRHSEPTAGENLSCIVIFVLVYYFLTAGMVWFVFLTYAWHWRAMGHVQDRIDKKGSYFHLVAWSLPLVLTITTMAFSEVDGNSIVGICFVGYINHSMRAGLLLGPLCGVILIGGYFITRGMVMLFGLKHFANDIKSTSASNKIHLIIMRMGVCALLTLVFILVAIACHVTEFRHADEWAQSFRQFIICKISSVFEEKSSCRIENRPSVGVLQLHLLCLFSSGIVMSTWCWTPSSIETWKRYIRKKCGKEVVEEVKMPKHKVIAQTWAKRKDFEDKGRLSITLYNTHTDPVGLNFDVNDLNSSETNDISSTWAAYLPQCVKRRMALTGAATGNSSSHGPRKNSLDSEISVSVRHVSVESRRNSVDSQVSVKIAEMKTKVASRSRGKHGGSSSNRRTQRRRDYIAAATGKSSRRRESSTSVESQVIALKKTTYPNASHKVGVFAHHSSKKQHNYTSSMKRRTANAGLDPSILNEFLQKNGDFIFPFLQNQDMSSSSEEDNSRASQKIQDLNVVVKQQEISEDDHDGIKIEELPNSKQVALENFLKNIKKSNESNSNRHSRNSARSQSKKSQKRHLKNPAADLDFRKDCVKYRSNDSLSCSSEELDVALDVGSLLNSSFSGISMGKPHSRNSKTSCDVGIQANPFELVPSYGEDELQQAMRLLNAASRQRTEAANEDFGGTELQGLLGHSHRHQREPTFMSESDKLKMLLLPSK

binding (PtcWTΔC4-V5 (Drosophila)): no binding
binding (SmoWT (Drosophila)): binds
Substance: HA tagged PKAc (3XHA-PKAc) (from UniProt P12370 1-353) (enzyme)
